Measurements taken from PubChem BioAssay AID493208 (National Center for Advancing Translational Sciences (NCATS), 2011).
The campaign covered roughly 44,000 compounds. About 340 (0.77%) were called active. Another 5% or so got no clear call; they are omitted. Calls come from the whole dose curve; as a rule, active = well fitted inhibition curve with a large enough effect; inconclusive = small, poorly fitted or top-dose-only effect; inactive = flat fitted curve, though single readings scatter. The list shows a part of the results.

Assay: Acumen qHTS Assay for Inhibitors of the mTORC1 Signaling Pathway in MEF (Tsc2-/-, p53-/-) Cells: Sytravon;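 note: plate controls were DMSO for no effect and rapamycin for full effect; nearly all actives have a fitted effect of over 50% in size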
Conditions: phospho-rpS6 immunofluorescence/PI, 24 h; series mostly up to 38.3 µM; activity change, negative = inhibition: at the top concentration
In short: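 Cell-based qHTS: Tsc2-/- p53-/- MEF, 24 h cpd, 37 °C; fix/perm, anti-phospho-S6 Alexa-488 + PI; Acumen 488 nm scan; pS6/PI ratio, % positive cells; rapamycin 7.5 nM = inhibition ref; PI count = viability.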

Activity change, negative = inhibition, inactive:
Cc1cc(C)cc(OC(C)C(=O)Nc2nonc2-c2ccc(Br)cc2)c1 (stereo not given) 0.71%
Cc1ccccc1NC(=O)CSc1nnc(C)c(=O)[nH]1 -1.85%
CCOc1cccc(CNC(=O)c2ccc(N3CCCC3)c(NC(=O)NCc3ccc(F)cc3)c2)c1 18.3%
Cc1ccc(Cl)cc1N(C)C(=O)Cn1nc(Cc2cccnc2)c2ccccc2c1=O -18.5%
Nc1c(-c2nc(-c3cccs3)no2)nnn1-c1ccccc1Cl -6.16%
O=C(NCc1ccco1)C1CCN(C(=O)N2CCOc3ccccc32)CC1 1.08%
COCCn1c(CNC(=O)c2ccc(C)cc2)nc2cccnc21 -0.701%
COc1ccccc1-c1nc2c3c(-c4ccccc4)c(-c4ccccc4)oc3ncn2n1 9.79%
CCN(CC)CCOC(=O)c1ccc(NC(=O)Cn2ncc3c([nH]c4ccc(C)cc43)c2=O)cc1 5.91%
Cc1ccccc1CS(=O)(=O)CC1Nc2ccc(C(=O)NCc3ccc(Cl)cc3)cc2NC1=O (stereo not given) -9.89%
Cc1ccc(-n2nc(C)c(C(=O)NCCCN3CCN(c4ccc(F)cc4)CC3)c2-n2cccc2)cc1 -15.4%
Cc1ccc(C)c(Cn2c3ccccc3c3cnn(CC(=O)NCCCc4ccccc4)c(=O)c32)c1 -13.1%
CCOc1ccc(-c2nonc2NC(=O)c2oc3c(C)c(C)ccc3c2C)cc1OCC -6.28%
Cc1ccccc1CNC(=O)C1CCN(c2nnc(-n3c(C)ccc3C)s2)CC1 0.223%
Cc1cccc(NC(=O)N2CCC(CN3CCC(C)CC3)CC2)c1C -9.91%
CC(=O)Nc1c(C)nn(-c2ccccc2)c1N1CCC(C(=O)Nc2ccc(F)cc2Cl)CC1 4.31%
CCc1cccc(CC)c1NC(=O)C(CC)n1nc(C)n2c(cc3cc(C)ccc32)c1=O (stereo not given) -3.81%
CCOC(=O)c1c(C)[nH]c(C)c1S(=O)(=O)N1CCCC(C(=O)Nc2ccccc2OCC)C1 (stereo not given) -10.6%
Cc1ccc2c(c1)C(c1ccccc1)N(C(=O)c1ccccc1F)CC(=O)N2 (stereo not given) -1.1%
CCCn1c(SCc2nc(-c3cc(OC)ccc3OC)no2)nnc1-c1ccc(Cl)cc1 -1.47%
CCOC(=O)c1cccc(NC(=O)c2cc3cc4ccc(C)cc4nc3o2)c1 -5.09%
CCN1CCN(c2csc3ccc(C)cc3c2=O)CC1 4.77%
Cc1ccc(-n2ncc(C(=O)Nc3ccc4c(c3)OCCO4)c2C2CCN(C(=O)OC(C)(C)C)CC2)cc1 1.88%
Cc1ccccc1-c1noc(-c2cc3ccccc3oc2=O)n1 5.43%
Cc1ccc(-c2nc(CS(=O)(=O)CC(=O)N3CCN(c4cccc(C)c4C)CC3)c(C)o2)cc1 -2.31%
CC1CCN(S(=O)(=O)c2ccc3c(c2)oc(=O)n3CC(=O)NC(C)c2ccccc2)CC1 (stereo not given) -10.3%
CCCc1ccc(OC(C)C(=O)Nc2sc3c(c2C(=O)OC)CCCCC3)cc1 (stereo not given) 3.41%
CSc1nc(Nc2cccc(C)c2)c(C#N)c(-c2ccccc2)n1 -6.01%
CNc1c(NC(=O)c2cc(OC)cc(OC)c2)c(=O)oc2ccccc12 3.19%
Cn1c(SCC(=O)N2CCCc3ccccc32)ncc(C(=O)Nc2ccc(F)cc2)c1=O -2.3%
CCOC(=O)c1cnc2ccc(OC)cc2c1NCCc1ccc(OC)c(OC)c1 -16.9%
Cc1cccc(CNC(=O)c2cccc(NC(=O)N3CCSc4ncccc43)c2)c1 -10.2%
COc1ccc2c(c1)c1c(c(=O)n(-c3ccc(C)cc3)c(=O)n1CC(=O)N1CCCC1)n2C -8.74%
CCOc1ccc(-n2ccn3c(CC(C)CC(=O)O)nnc3c2=O)cc1 (stereo not given) -9.71%
Cc1ccccc1-c1nc2cc(NC(=O)c3cccc(OCCC(C)C)c3)ccc2o1 -11.1%
CCC12CN3CC(C)(CN(C1)C3c1ccccc1C)C2=O (stereo not given) 3.05%
CCCCN(Cc1ccccc1)S(=O)(=O)c1cc(Br)cc2c1N(C(=O)C1CC1)CC2 0.237%
CCOC(=O)N1CCC(NC(=O)c2ccc3c(c2)N(Cc2ccccc2)C(=O)c2ccccc2S3=O)CC1 (stereo not given) -17.5%
CC(=O)C1=C(c2ccc(Cl)c(Cl)c2)N(C(C)=O)n2c(nnc2C2CCCCC2)S1 -5.12%
O=C(CCc1nnc2n(Cc3ccccc3Cl)c(=O)c3ccccc3n12)Nc1ccc(F)cc1 -11.8%
CCCNC(=O)CCn1nc(-c2ccccc2)c2ccccc2c1=O 3.06%
O=C(CSc1nnc(CNC(=O)c2ccccc2F)n1-c1ccccc1)Nc1ccccc1F -0.493%
Cc1ccc(S(=O)(=O)c2cnc(SC(C)C(=O)Nc3ccccc3)[nH]c2=O)cc1 (stereo not given) -1.76%
CCC(Cn1nnc2ccccc2c1=O)NC(=O)Nc1ccc(C)cc1 (stereo not given) -0.116%
CCOc1ccc(OCC)c(NC(=O)c2cc(CN3CCOCC3)on2)c1 7.45%
CCOC(=O)C1CCCN(C(=O)c2cccc(NC(=O)c3nsc4ccccc34)c2)C1 (stereo not given) -9.57%
Cc1ccc(NC(=O)CCNS(=O)(=O)c2ccc(Br)s2)cc1 -0.511%
COc1cc(C2C(=O)N(C3CCCCCC3)CC(=O)N2CCC2=CCCCC2)ccc1OC(C)C (stereo not given) 8.84%
O=C(NCCS(=O)(=O)N1CCN(c2ccccc2F)CC1)C(c1ccccc1)c1ccccc1 3.37%
O=C(Nc1ccccc1Cl)c1cc(S(=O)(=O)N2CCC3(CC2)OCCO3)ccc1F 7.81%
Cc1ccc(-c2nc(NC(=O)CSc3ncnc4sc5c(c34)CCC(C)C5)ns2)cc1 (stereo not given) 9.46%
CCn1cc2nc(SCc3ccccc3Cl)n(CCc3ccccc3)c(=O)c2n1 -5.43%
COc1ccc(-n2cc(C(=O)OCc3ccc(F)c(F)c3)c3ccccc3c2=O)cc1 -4.99%
CCc1ccc(NS(=O)(=O)c2ccc3[nH]cc(C(=O)NCCc4cccc(C)c4)c(=O)c3c2)cc1 0.184%
Cc1cccc(N2CCN(C(=O)CCc3c(C)nc4c(c3C)c(=O)n(C)c(=O)n4C)CC2)c1C 1.07%
Cc1ccc(OC(=O)c2cc(-c3ccc(Cl)cc3)on2)c(C)c1 -3.63%
O=C(NC1(C(F)(F)F)C(=O)Nc2c1c(=O)[nH]c(=O)n2-c1ccc(F)cc1)c1ccccc1 (stereo not given) 9.98%
COc1ccc(C2C(=O)N(C3CCCCC3)CC(=O)N2CCC2=CCCCC2)cc1 (stereo not given) 7.93%
CCOc1ccc(-n2c(=O)c3sc4ccccc4c3n(Cc3cccc(C)c3)c2=O)cc1 -13.5%
CC1CCC(NC(=O)c2ccc3c(c2)N(Cc2ccccc2F)C(=O)c2ccccc2S3=O)CC1 (stereo not given) 0.919%
CCOc1ccc(CCNC(=O)Cn2ncn3c(cc4sc(C)cc43)c2=O)cc1OCC 0.42%
COc1ccc2c(c1)sc1ncc(C(=O)NCc3ccc(Cl)cc3)c(=O)n12 -1.91%
CCN1CCN(c2oc(/C=C/c3ccc(OC)c(OC)c3)nc2C#N)CC1 -10.5%
O=C(NCc1ccccc1)C(=O)NCC(c1ccc2c(c1)OCO2)N1CCOCC1 (stereo not given) -6.98%
Clc1ccc(-c2cn3ncsc3n2)cc1 -7.5%
COc1cccc(CNC(=O)C(NS(=O)(=O)c2cccs2)C(C)C)c1 (stereo not given) -7.78%
COc1cccc(CNC(=O)c2ccc3nc(N4CCCCC4)sc3c2)c1OC -0.0621%
COc1ccccc1NC(=O)c1cc(S(=O)(=O)NCCc2ccccc2)ccc1F -4.31%
Cc1ccc(CN2CCSc3ccc(C(=O)N4CCN(c5ccc(Cl)cc5)CC4)cc32)cc1 2.85%
CCCCN1C(=O)c2[nH]nc(-c3ccccc3O)c2C1c1cc(Br)c(O)c(OC)c1 (stereo not given) 3.4%
O=c1c2cccnc2n(Cc2ccccc2F)c(=O)n1Cc1ccc(F)cc1 -4.43%
COc1ccc(NC(=O)Cn2c3ncccc3c(=O)n2-c2ccc(C)c(C)c2)c(OC)c1 8.48%
O=S(=O)(Nc1ccc2nc(-c3ccc(F)cc3)oc2c1)c1ccccc1 -7.33%
CCOCCCNC(=O)C(c1ccc(OC)cc1)N(Cc1ccc2c(c1)OCO2)C(=O)c1ccc(NC(C)=O)cc1 (stereo not given) 2.36%
CCCCc1nn2c(=O)cc(COC(=O)c3ccc(NC(=O)c4ccccc4Cl)cc3)nc2s1 2.31%
Cc1nnc(NC(=O)CSc2nc3c([nH]c4ccccc43)c(=O)n2-c2ccc(Cl)cc2)s1 -1.03%
CC(=O)Nc1cc(C(=O)NCc2ccccc2Cl)ccc1Sc1ccc(F)cc1 10.9%
Cc1cc(C)cc(NC(=O)c2cc(S(=O)(=O)NCCC3=CCCCC3)ccc2F)c1 0.759%
Cc1ccc(NC(=O)c2cc(S(=O)(=O)N3CCCCC3)c[nH]2)cc1N(C)C -5.02%
Cc1cccc(C(=O)Nc2ccc3oc(-c4cccc5c(Br)cccc45)nc3c2)c1 3.58%
COc1ccc(CCNCc2c(C(=O)O)c(C)n(Cc3c(F)cccc3Cl)c2C)cc1OC -6.19%
Cc1cc(OCC(=O)Nc2ccc(C(=O)OC3CCCCC3)cc2)cc(C)c1Cl 10.6%
COc1ccc2c(c1)CC(C(=O)NCc1ccc(F)cc1)CO2 (stereo not given) -0.786%
CCc1ccc(NC(=O)C2CCN(c3nc(-c4ccc(OC)cc4)no3)CC2)cc1 7.02%
CCOc1ccc2nc(N3CCN(C(=O)c4ccc5c(c4)CCCC5)CC3)sc2c1 2.03%
Cc1ccc2c(c1)C(=O)OC(C(=O)Nc1ncc(Cc3ccccc3Cl)s1)C2 (stereo not given) -3.91%
Cc1ccc(-c2cc(-c3ccc4c(c3)NC(=O)CO4)nc3c2COc2ccccc2-3)cc1 5.04%
COc1ccc2c(c1)c1c(c(=O)n(-c3ccc(F)c(Cl)c3)c(=O)n1Cc1cccc(C)c1)n2C -3.19%
Cc1ccc(C(=O)Nc2c(C(=O)NC(C)(C)C)oc3ccccc23)cc1 -1.49%
CCOc1ccc2c(c1)c(=O)c(C(=O)c1ccccc1)cn2Cc1ccccc1 -16.9%
Cc1c(CCC(=O)NCCc2ccccc2)c(=O)oc2cc(O)ccc12 4.63%
CCCS(=O)(=O)c1nc(S(=O)(=O)c2ccc(C)cc2)c(N(CC)CC)s1 -0.967%
CCOC(=O)c1ccc(NC(=O)CSc2c(C(C)C)cnc3c2c(=O)n(C)c(=O)n3C)cc1 0%
Cc1ccc(-n2nc(C)c3nc(CCC(=O)Nc4cccc(C)c4C)c(=O)n(C)c32)cc1 0%
Cc1cc(C)c2c(CC(=O)Nc3ccc(F)cc3)coc2c1 -11.3%
